Reference: US20010044437A1, “Methods for reducing uric acid levels” (priority 2000, published 2001)
This continues a long series; more values of the same kind are listed elsewhere.

Test system: serum uric acid
Assay: Serum uric acid during 28-day once-daily oral dosing, placebo-controlled study in 48 subjects (Example 34)
Assay type: in vivo, human
Protocol: In another study, 48 subjects were divided into four groups, A, B, C and D, and administered the noted amount of the compound of Example 3. Each group was composed of 12 subjects of whom 9 received the compound and 3 received placebo. The non-placebo members of group A received 50 mg of compound, administered orally once a day for 28 days as a single 50 mg tablet. The non-placebo members of group B received 200 mg of compound administered orally once a day for 28 days as a single 200 mg tablet. The non-placebo members of group C received 500 mg of compound administered orally once a day for 28 days as two 50 mg tablets and two 200 mg tablets. The non-placebo members of group D received 800 mg of compound administered orally once a day for 28 days as four 200 mg tablets. The 3 placebo members of each group, received an amount of placebo, as a tablet, equivalent to the amount of test compound—50 mg placebo for group A, 200 mg placebo for group B, 500 mg placebo for group C and 800 mg placebo for group D. Each subject received a single dose of either compound or placebo for 28 days. The subjects were confined at the clinical site beginning the day before dose administration until 72 hours after the final dose administration on Day 28 and returned for an outpatient visit on Day 35.
Uric acid levels were measured prior to beginning the study (screening), on the day immediately prior to commencement of the study (day-1), and then as noted in the table. Hours indicates the time since the last dose was administered. For example, Day 7, 0 hour indicates the time the serum uric acid level at the time the dose was administered and Day 7, 2 hour indicates the uric acid level two hours after the adminstration that day. Further, the Day 30, 60 hour level is the serum uric acid level measured 60 hours (on Day 30) after the last dose was administered on Day 28. The uric acid levels are presented in mg/dL as a mean of all subjects in each group.

Question: What does the source list for `O=C(O)Cn1cc(Cc2nc3c(F)c(F)cc(F)c3s2)c2ccccc21` [Example 3, 3-(4,5,7-Trifluorobenzothiazol-2-yl)methyl-indole-N-acetic Acid]?
Answer: Uric Acid Level (mean of all subjects in each group) (group A 50 mg orally once a day, Day 1 0 Hour): 4.72 mg/dL; Uric Acid Level (mean of all subjects in each group) (group A 50 mg orally once a day, Day 1 0.5 Hour): 4.64 mg/dL; Uric Acid Level (mean of all subjects in each group) (group A 50 mg orally once a day, Day 1 1 Hour): 4.56 mg/dL; Uric Acid Level (mean of all subjects in each group) (group A 50 mg orally once a day, Day 1 2 Hour): 4.40 mg/dL; Uric Acid Level (mean of all subjects in each group) (group A 50 mg orally once a day, Day 1 3 Hour): 4.26 mg/dL; Uric Acid Level (mean of all subjects in each group) (group A 50 mg orally once a day, Day 1 4 Hour): 4.29 mg/dL; Uric Acid Level (mean of all subjects in each group) (group A 50 mg orally once a day, Day 1 6 Hour): 4.26 mg/dL; Uric Acid Level (mean of all subjects in each group) (group A 50 mg orally once a day, Day 14 12 Hour): 3.09 mg/dL; Uric Acid Level (mean of all subjects in each group) (group A 50 mg orally once a day, Day 14 16 Hour): 3.08 mg/dL; Uric Acid Level (mean of all subjects in each group) (group A 50 mg orally once a day, Day 14 24 Hour): 3.57 mg/dL; Uric Acid Level (mean of all subjects in each group) (group A 50 mg orally once a day, Day 21 0 Hour): 3.49 mg/dL; Uric Acid Level (mean of all subjects in each group) (group A 50 mg orally once a day, Day 28 0 Hour): 3.51 mg/dL; Uric Acid Level (mean of all subjects in each group) (group A 50 mg orally once a day, Day 28 0.05 Hour): 3.39 mg/dL; Uric Acid Level (mean of all subjects in each group) (group A 50 mg orally once a day, Day 28 1 Hour): 3.36 mg/dL; Uric Acid Level (mean of all subjects in each group) (group A 50 mg orally once a day, Day 28 2 Hour): 3.28 mg/dL; Uric Acid Level (mean of all subjects in each group) (group A 50 mg orally once a day, Day 28 3 Hour): 3.18 mg/dL; Uric Acid Level (mean of all subjects in each group) (group A 50 mg orally once a day, Day 28 4 Hour): 3.14 mg/dL; Uric Acid Level (mean of all subjects in each group) (group A 50 mg orally once a day, Day 28 6 Hour): 3.48 mg/dL; Uric Acid Level (mean of all subjects in each group) (group A 50 mg orally once a day, Day 28 8 Hour): 3.48 mg/dL; Uric Acid Level (mean of all subjects in each group) (group A 50 mg orally once a day, Day 28 10 Hour): 3.50 mg/dL; Uric Acid Level (mean of all subjects in each group) (group A 50 mg orally once a day, Day 28 12 Hour): 3.46 mg/dL; Uric Acid Level (mean of all subjects in each group) (group A 50 mg orally once a day, Day 28 16 Hour): 3.29 mg/dL; Uric Acid Level (mean of all subjects in each group) (group A 50 mg orally once a day, Day 28 24 Hour): 3.60 mg/dL; Uric Acid Level (mean of all subjects in each group) (group A 50 mg orally once a day, Day 29 48 Hour after last dose on Day 28): 3.76 mg/dL; Uric Acid Level (mean of all subjects in each group) (group A 50 mg orally once a day, Day 30 60 Hour after last dose on Day 28): 3.94 mg/dL; Uric Acid Level (mean of all subjects in each group) (group A 50 mg orally once a day, Day 31 72 Hour after last dose on Day 28): 4.35 mg/dL; Uric Acid Level (mean of all subjects in each group) (group A 50 mg orally once a day, Day 32 96 Hour after last dose on Day 28): 4.96 mg/dL; Uric Acid Level (mean of all subjects in each group) (group A 50 mg orally once a day, Day 33 120 Hour after last dose on Day 28): 4.91 mg/dL; Uric Acid Level (mean of all subjects in each group) (group A 50 mg orally once a day, Day 34 144 Hour after last dose on Day 28): 5.06 mg/dL; Uric Acid Level (mean of all subjects in each group) (group A 50 mg orally once a day, Day 35 (last dose Day 28)): 4.68 mg/dL; Uric Acid Level (mean of all subjects in each group) (group A 50 mg orally once a day, Day-1 (before dosing)): 4.70 mg/dL; Uric Acid Level (mean of all subjects in each group) (group A 50 mg orally once a day, Screening (before dosing)): 4.52 mg/dL; Uric Acid Level (mean of all subjects in each group) (group B 200 mg orally once a day, Day 1 0 Hour): 5.10 mg/dL; Uric Acid Level (mean of all subjects in each group) (group B 200 mg orally once a day, Day 1 0.5 Hour): 5.01 mg/dL; Uric Acid Level (mean of all subjects in each group) (group B 200 mg orally once a day, Day 1 1 Hour): 4.91 mg/dL; Uric Acid Level (mean of all subjects in each group) (group B 200 mg orally once a day, Day 1 2 Hour): 4.58 mg/dL; Uric Acid Level (mean of all subjects in each group) (group B 200 mg orally once a day, Day 1 3 Hour): 4.28 mg/dL; Uric Acid Level (mean of all subjects in each group) (group B 200 mg orally once a day, Day 1 4 Hour): 4.04 mg/dL; Uric Acid Level (mean of all subjects in each group) (group B 200 mg orally once a day, Day 1 6 Hour): 3.83 mg/dL; Uric Acid Level (mean of all subjects in each group) (group B 200 mg orally once a day, Day 14 0.5 Hour): 2.87 mg/dL; Uric Acid Level (mean of all subjects in each group) (group B 200 mg orally once a day, Day 14 1 Hour): 2.82 mg/dL; Uric Acid Level (mean of all subjects in each group) (group B 200 mg orally once a day, Day 14 2 Hour): 2.64 mg/dL; Uric Acid Level (mean of all subjects in each group) (group B 200 mg orally once a day, Day 14 3 Hour): 2.57 mg/dL; Uric Acid Level (mean of all subjects in each group) (group B 200 mg orally once a day, Day 14 4 Hour): 2.53 mg/dL; Uric Acid Level (mean of all subjects in each group) (group B 200 mg orally once a day, Day 14 6 Hour): 2.67 mg/dL; Uric Acid Level (mean of all subjects in each group) (group B 200 mg orally once a day, Day 14 8 Hour): 2.53 mg/dL; Uric Acid Level (mean of all subjects in each group) (group B 200 mg orally once a day, Day 14 10 Hour): 2.52 mg/dL; Uric Acid Level (mean of all subjects in each group) (group B 200 mg orally once a day, Day 14 12 Hour): 2.52 mg/dL; Uric Acid Level (mean of all subjects in each group) (group B 200 mg orally once a day, Day 14 16 Hour): 2.42 mg/dL; Uric Acid Level (mean of all subjects in each group) (group B 200 mg orally once a day, Day 14 24 Hour): 2.96 mg/dL; Uric Acid Level (mean of all subjects in each group) (group B 200 mg orally once a day, Day 21 0 Hour): 3.39 mg/dL; Uric Acid Level (mean of all subjects in each group) (group B 200 mg orally once a day, Day 28 0 Hour): 3.96 mg/dL; Uric Acid Level (mean of all subjects in each group) (group B 200 mg orally once a day, Day 28 0.05 Hour): 3.92 mg/dL; Uric Acid Level (mean of all subjects in each group) (group B 200 mg orally once a day, Day 28 1 Hour): 3.87 mg/dL; Uric Acid Level (mean of all subjects in each group) (group B 200 mg orally once a day, Day 28 2 Hour): 3.70 mg/dL; Uric Acid Level (mean of all subjects in each group) (group B 200 mg orally once a day, Day 28 3 Hour): 3.66 mg/dL; Uric Acid Level (mean of all subjects in each group) (group B 200 mg orally once a day, Day 28 4 Hour): 3.59 mg/dL; Uric Acid Level (mean of all subjects in each group) (group B 200 mg orally once a day, Day 28 6 Hour): 3.92 mg/dL; Uric Acid Level (mean of all subjects in each group) (group B 200 mg orally once a day, Day 28 8 Hour): 3.87 mg/dL; Uric Acid Level (mean of all subjects in each group) (group B 200 mg orally once a day, Day 28 10 Hour): 3.91 mg/dL; Uric Acid Level (mean of all subjects in each group) (group B 200 mg orally once a day, Day 28 12 Hour): 3.77 mg/dL; Uric Acid Level (mean of all subjects in each group) (group B 200 mg orally once a day, Day 28 16 Hour): 3.49 mg/dL; Uric Acid Level (mean of all subjects in each group) (group B 200 mg orally once a day, Day 28 24 Hour): 4.07 mg/dL; Uric Acid Level (mean of all subjects in each group) (group B 200 mg orally once a day, Day 29 48 Hour after last dose on Day 28): 3.40 mg/dL; Uric Acid Level (mean of all subjects in each group) (group B 200 mg orally once a day, Day 30 60 Hour after last dose on Day 28): 3.56 mg/dL; Uric Acid Level (mean of all subjects in each group) (group B 200 mg orally once a day, Day 31 72 Hour after last dose on Day 28): 4.41 mg/dL; Uric Acid Level (mean of all subjects in each group) (group B 200 mg orally once a day, Day 32 96 Hour after last dose on Day 28): 4.83 mg/dL; Uric Acid Level (mean of all subjects in each group) (group B 200 mg orally once a day, Day 33 120 Hour after last dose on Day 28): 4.99 mg/dL
